Read counts are not given, so values of variants with three or more changes are uncertain.
B1: CPEB3 Ribozyme (parent)
chain: UAACAGGGGGCCACAGCAGAAGCGUUCACGUCGCAGCCCCUGUCAGAUUCUGGUGAAUCUGCGAAUUCUGCUGUAUAUCUC

Variants of: B1
Experiment: self-cleavage, relative activity (ratio to wild type); higher = more cleavage; in vitro, sequencing
How it was run: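 Libraries of CPEB3 self-cleaving ribozyme mutants came from rounds of error-prone PCR and carried barcodes, which DNA sequencing matched to variants. In vitro transcription used T7 RNA polymerase at 37°C for 5 hours, with a further 15 min in DNase I before EDTA stopped the reaction; the ribozymes cleaved during both steps. The RNA was reverse transcribed with template switching and sequenced on Illumina. Relative activity is the cleaved/total read fraction of a variant divided by that of the unmutated ribozyme, averaged over three batches with at least 5 reads.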

| Variant | self-cleavage |
| --- | --- |
| G36C C40U U80A | 0.3 |
| G36C U41C A47G | 0.28 |
| G36C U54C A56G | 0.16 |
| G36U C37U U51A G61A | 0.15 |
| G36U U43A U51G | 0.17 |
| G36U U43C U60C U69A | 0.25 |
| G36U U60A C79A | 0.14 |
| C37A C40G U41C U43C C50U U58A U76C | 0.06 |
| C37A U41A A65G | 0.32 |
| C37A U41C U54C U78C | 0.16 |
| C37A U43C A56G | 0.17 |
| C37A U43C U51A U78A | 0.14 |
| C37G A57G A64G G70C | 0.12 |
| C37G A64U U69A | 0.08 |
| C37G C38A U41G C71A | 0.18 |
| C37G G42U U60A | 0.43 |
| C37U A45C A75U | 0.28 |
| C37U A47C G55A A56G | 0.09 |
| C37U A56G A75U | 0.79 |
| C37U A57G A64U U67C | 0.19 |
| C37U C39U U51A C59A U80C | 0.11 |
| C37U C50G A65U | 0.11 |
| C37U C50G U67A | 0.12 |
| C37U G52A C59U | 0.69 |

| Variant | self-cleavage |
| --- | --- |
| C37U G55A U67C U69G U74A | 0.1 |
| C37U U41A U43A U54A | 0.1 |
| C37U U43C A65G | 0.1 |
| C37U U43C U49C A64G | 0.08 |
| C37U U43C U49G U51A A65G | 0.07 |
| C37U U51G A57U U69A | 0.09 |
| C37U U54A A64U U69C | 0.29 |
| C37U U58C U72A | 0.48 |
| C37U U67A A75G | 0.42 |
| C38A C50A U69A | 0.14 |
| C38A G42A A75U | 0.16 |
| C38A G55U A57G | 0.08 |
| C38A U41A U60C U69C | 0.4 |
| C38A U43C A45G U80C | 0.25 |
| C38A U49C A65G U67C | 0.11 |
| C38A U51C U80C | 0.25 |
| C38A U54C U78C | 0.29 |
| C38G A45U U54C A56U | 0.15 |
| C38G A45U U60C | 0.27 |
| C38G C44U U74A | 0.24 |
| C38G U67C U80C | 0.09 |
| C38G U72C U80C | 0.32 |
| C38U A47G U78C | 0.48 |
| C38U C39A U76C | 0.09 |

| Variant | self-cleavage |
| --- | --- |
| C38U C40U U60C | 0.1 |
| C38U C50U U76A | 0.8 |
| C38U U41A C62U A64C A65G U66A | 0.11 |
| C38U U41C A65G | 0.32 |
| C38U U41C U49C A57G A64U U76G | 0.4 |
| C38U U48A U51A U80C | 0.18 |
| C38U U48A U69C C71U | 0.14 |
| C38U U51C A75G U78C | 0.24 |
| C38U U60C C68A | 0.1 |
| C38U U67A U69C U80C | 0.19 |
| C38U U67C U72C | 0.1 |
| C38U U67C U76C | 0.27 |
| C39A A45G A57G A64G G70A | 0.05 |
| C39A A45G U72C | 0.14 |
| C39A A57C A64G | 0.15 |
| C39A A65U U67A U80A | 0.03 |
| C39A U41A U67C | 0.17 |
| C39A U41G A56G U60G A75G U78C | 0.04 |
| C39A U51A A56G | 0.17 |
| C39A U51C U80C | 0.08 |
| C39A U54C A64U U69A | 0.06 |
| C39A U67C U74C | 0.08 |
| C39G U60A U67A U69C C71U A75G | 0 |
| C39U A45G U48C G53C U72C | 0.16 |

| Variant | self-cleavage |
| --- | --- |
| C39U A45G U72A | 0.67 |
| C39U U41A A57G U60C A64U | 0.1 |
| C39U U41A U43A U54C G70A | 0.06 |
| C39U U51A U67C | 0.22 |
| C39U U58C U66G | 0.13 |
| C39U U58C U72C | 0.69 |
| C39U U72G U78C | 1.2 |
| C40A A45G U72C | 0.56 |
| C40A A45U U49C U54A A56G U72C | 0.08 |
| C40A A56G U58C | 0.08 |
| C40A C71U U72C | 0.08 |
| C40A G42U A45G | 0.09 |
| C40A U41A A47U U72C | 0.04 |
| C40A U41C U49C U60A | 0.18 |
| C40A U43C U80C | 0.12 |
| C40A U48C U69A | 0.18 |
| C40A U51A A56U U66C | 0.12 |
| C40A U58C U74C | 0.24 |
| C40A U67C U69C | 0.58 |
| C40A U72C A75G | 0.1 |
| C40G A47U U51G U58G C71U | 0.05 |
| C40G A56G A65G | 0.21 |
| C40G U41A U80A | 0.42 |
| C40U A45G G46C A65G U72C | 0.09 |

| Variant | self-cleavage |
| --- | --- |
| C40U A45U U51A U78C | 0.08 |
| C40U A47G A65C | 0.08 |
| C40U A57G U69C | 0.39 |
| C40U A57G U80A | 0.6 |
| C40U G46U A64U | 0.06 |
| C40U G52A U78A | 0.88 |
| C40U U41C U49C G52A U54C | 0.69 |
| C40U U41C U66C U72A U80C | 0.41 |
| C40U U43A A56C | 0.35 |
| C40U U43A A57G U58C U69C | 0.5 |
| C40U U43A A65G | 0.2 |
| C40U U43A G63U A65G | 0.34 |
| C40U U43G U54C | 0.48 |
| C40U U48C G55A A56U | 0.13 |
| C40U U48C U51A G61C U69C | 0.27 |
| C40U U49A A57G A75G | 0.15 |
| C40U U51A U54A A56G U60C | 0.12 |
| C40U U51C A57G | 0.39 |
| C40U U54C U60C U66A A75U | 0.11 |
| C40U U60A U72C | 0.53 |
| C40U U60A U78C | 0.13 |
| U41A A45G A77G | 0.35 |
| U41A A45U A47U A56G U67A | 0.19 |
| U41A A45U A64G | 0.44 |

| Variant | self-cleavage |
| --- | --- |
| U41A A45U U60C G61A U76C | 0.17 |
| U41A A47G C59A A65G U80C | 0.1 |
| U41A A47G U49C | 0.09 |
| U41A A47G U78C | 0.11 |
| U41A A56G A75U | 0.18 |
| U41A A57G A65U | 0.11 |
| U41A A57G U60C U78C | 0.11 |
| U41A A57G U66C | 0.14 |
| U41A A57G U69C | 0.11 |
| U41A A57U U60G | 0.11 |
| U41A A57U U72A | 0.44 |
| U41A A64G U76C | 0.1 |
| U41A A64G U80C | 0.25 |
| U41A A64U C68U | 0.33 |
| U41A A64U U66C | 0.13 |
| U41A A65G G73A | 0.1 |
| U41A C50A A64U | 0.12 |
| U41A C62A U69A U72C | 0.13 |
| U41A G42A U43C C44U U69A | 0.26 |
| U41A G46C U54C A75G | 0.06 |
| U41A G46U C59A | 0.37 |
| U41A G52C U60A U69C | 0.09 |
| U41A G55C A57G A64G | 0.06 |
| U41A G63A A64U | 0.13 |

| Variant | self-cleavage |
| --- | --- |
| U41A G70A U74A | 0.16 |
| U41A G70U U72C | 0.1 |
| U41A U43A A64G | 0.21 |
| U41A U43C A45U U80C | 0.09 |
| U41A U43C A57G | 0.1 |
| U41A U43C C62G A64G U66C U80C | 0.12 |
| U41A U43C U51A U66A | 0.26 |
| U41A U43C U51C C62G U66C U76G | 0.14 |
| U41A U43C U51C G55A | 0.14 |
| U41A U43C U80C | 0.43 |
| U41A U48A U49A A56U A65G G70A | 0.09 |
| U41A U48A U58C | 0.17 |
| U41A U49A U74C | 0.27 |
| U41A U49C A77G | 0.19 |
| U41A U49C G70A | 0.08 |
| U41A U49C U51C A64U U66C U69A U80C | 0.06 |
| U41A U49C U51C U76C U78A | 0.04 |
| U41A U49C U54C A64G U80C | 0.11 |
| U41A U49C U69A U76A | 0.09 |
| U41A U49C U72A U76A | 0.04 |
| U41A U51A A64G U76C A77U | 0.18 |
| U41A U51A C71U | 0.1 |
| U41A U51A U54A | 0.46 |
